Test results taken from the supplement of paper PMC10126150.
Sequences with one replicate were seen in a single cluster, so their values are uncertain.

Tested on: ATP
Assay: switch fluorescence ratio, 500 uM ATP over buffer (Cy3 cluster intensity, sum of 5 cycles each) (fold (ratio)); higher = stronger signal-on switching upon ATP binding; sequences stand for … in TCGTCGGCAGCGTCAGATGTGTATAAGAGACAGTTTTTTTTTTTTTTTTTTTTTTTTT…TC
Conditions: aptamer strand: ATP DNA aptamer (quencher-CACCTGGGGGAGTATTGCGGAGGAAGG + anchor), 100 nM annealed; ATP concentration: 500 uM; one replicate
In short: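 Five buffer/ATP imaging cycles were run on Cy3-labelled switching-strand clusters on a modified Illumina MiSeq flow-cell, with NaOH stripping and re-annealing between cycles. In each cycle, clusters annealed to 100 nM quencher-labelled ATP aptamer were imaged in selection buffer, then after 15 min with 500 uM ATP at 22 °C. Per cluster, the fluorescence ratio is summed target-cycle over summed buffer-cycle Cy3 intensity, averaged per switch-domain sequence. Only clusters within 100-1000 RFU were kept.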
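Note: ATP exposure 15 min at 22 °C before imaging.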

Q: Which switch fluorescence ratio does the source give for CTCTCTGAAA here?
A: 1.21

Q: How did the switch fluorescence ratio turn out when CTCTGGAATT was run?
A: 1.6

Q: How did the switch fluorescence ratio turn out when CTCTGTACCG was run?
A: 0.987

Q: For CTCTGTTAAT, which switch fluorescence ratio is on record?
A: 1.2

Q: For CTCTGTTATA, which switch fluorescence ratio is on record?
A: 1.25

Q: With CTCTTAATTG as the sequence, how does the switch fluorescence ratio read?
A: 1.03

Q: How did the switch fluorescence ratio turn out when CTCTTATTGT was run?
A: 0.988

Q: How did the switch fluorescence ratio turn out when CTCTTCTGG was run?
A: 1.01

Q: For CTCTTTGTGG, which switch fluorescence ratio is on record?
A: 0.975

Q: How did the switch fluorescence ratio turn out when CTGAAACGG was run?
A: 0.994

Q: CTGAAACTGA was tested. Which switch fluorescence ratio did it give?
A: 1.03

Q: How did the switch fluorescence ratio turn out when CTGAAAGTCG was run?
A: 0.983

Q: Which switch fluorescence ratio does the source give for CTGAAGAGGC here?
A: 0.991

Q: CTGAAGGATG was tested. Which switch fluorescence ratio did it give?
A: 0.959

Q: For CTGAAGGCGG, which switch fluorescence ratio is on record?
A: 1.03

Q: Which switch fluorescence ratio does the source give for CTGAATAAGC here?
A: 1.03

Q: For CTGACACCGA, which switch fluorescence ratio is on record?
A: 1.33

Q: How did the switch fluorescence ratio turn out when CTGACAGGTG was run?
A: 2.09

Q: Which switch fluorescence ratio does the source give for CTGACGTATG here?
A: 1.02

Q: For CTGACTTTAC, which switch fluorescence ratio is on record?
A: 2.19

Q: Which switch fluorescence ratio does the source give for CTGAGACAGT here?
A: 1.01

Q: How did the switch fluorescence ratio turn out when CTGAGCCTA was run?
A: 1.05

Q: How did the switch fluorescence ratio turn out when CTGAGGACAC was run?
A: 1.1

Q: With CTGAGGATAT as the sequence, how does the switch fluorescence ratio read?
A: 1.08

Q: CTGAGGCCCC was tested. Which switch fluorescence ratio did it give?
A: 1.02

Q: With CTGAGGGACG as the sequence, how does the switch fluorescence ratio read?
A: 0.953

Q: For CTGAGGGACT, which switch fluorescence ratio is on record?
A: 1.05

Q: Which switch fluorescence ratio does the source give for CTGAGGTATC here?
A: 1.02

Q: CTGAGTGGGT was tested. Which switch fluorescence ratio did it give?
A: 0.999

Q: How did the switch fluorescence ratio turn out when CTGATACGA was run?
A: 1.01

Q: CTGATCGCCT was tested. Which switch fluorescence ratio did it give?
A: 1.4

Q: CTGATGACAA was tested. Which switch fluorescence ratio did it give?
A: 1.09

Q: For CTGATGCTCA, which switch fluorescence ratio is on record?
A: 1.04

Q: CTGATGGTAA was tested. Which switch fluorescence ratio did it give?
A: 1.06

Q: CTGATTAGGT was tested. Which switch fluorescence ratio did it give?
A: 0.936

Q: For CTGATTCTTG, which switch fluorescence ratio is on record?
A: 0.993

Q: How did the switch fluorescence ratio turn out when CTGATTTAAG was run?
A: 0.994

Q: For CTGATTTTCA, which switch fluorescence ratio is on record?
A: 1.02

Q: CTGCACAGGG was tested. Which switch fluorescence ratio did it give?
A: 1.12

Q: How did the switch fluorescence ratio turn out when CTGCAGGTCA was run?
A: 1.02

Q: With CTGCAGGTTC as the sequence, how does the switch fluorescence ratio read?
A: 1.27

Q: Which switch fluorescence ratio does the source give for CTGCATCGTG here?
A: 1.01

Q: With CTGCATGTGT as the sequence, how does the switch fluorescence ratio read?
A: 1.04

Q: How did the switch fluorescence ratio turn out when CTGCCCGCTC was run?
A: 1.8

Q: Which switch fluorescence ratio does the source give for CTGCCCGGGA here?
A: 1.03

Q: With CTGCCGTTCT as the sequence, how does the switch fluorescence ratio read?
A: 1.09

Q: With CTGCCTTGCA as the sequence, how does the switch fluorescence ratio read?
A: 1.04

Q: CTGCGAACGG was tested. Which switch fluorescence ratio did it give?
A: 1.08

Q: How did the switch fluorescence ratio turn out when CTGCGCCTGC was run?
A: 1.47

Q: For CTGCGCGACT, which switch fluorescence ratio is on record?
A: 1.3

Q: For CTGCGCGCCT, which switch fluorescence ratio is on record?
A: 1.04

Q: How did the switch fluorescence ratio turn out when CTGCGGATGC was run?
A: 1.4

Q: With CTGCGGCGAC as the sequence, how does the switch fluorescence ratio read?
A: 1.44

Q: CTGCTACCGT was tested. Which switch fluorescence ratio did it give?
A: 1.05

Q: Which switch fluorescence ratio does the source give for CTGCTAGAGG here?
A: 1

Q: For CTGCTCCGCG, which switch fluorescence ratio is on record?
A: 2.78

Q: How did the switch fluorescence ratio turn out when CTGCTCGGCT was run?
A: 0.949

Q: How did the switch fluorescence ratio turn out when CTGCTTCGGT was run?
A: 1.05

Q: For CTGCTTTACT, which switch fluorescence ratio is on record?
A: 1.24

Q: For CTGGAAACGA, which switch fluorescence ratio is on record?
A: 1.04

Q: With CTGGAAAGGA as the sequence, how does the switch fluorescence ratio read?
A: 1

Q: How did the switch fluorescence ratio turn out when CTGGACGTT was run?
A: 0.983

Q: Which switch fluorescence ratio does the source give for CTGGAGATTC here?
A: 1.03

Q: For CTGGAGGAGA, which switch fluorescence ratio is on record?
A: 1.01

Q: For CTGGATCTAG, which switch fluorescence ratio is on record?
A: 1

Q: CTGGATCTTT was tested. Which switch fluorescence ratio did it give?
A: 0.944

Q: Which switch fluorescence ratio does the source give for CTGGCAGAT here?
A: 0.985

Q: For CTGGCAGGGG, which switch fluorescence ratio is on record?
A: 1.12

Q: CTGGCATAA was tested. Which switch fluorescence ratio did it give?
A: 1.15

Q: With CTGGCATTAA as the sequence, how does the switch fluorescence ratio read?
A: 1.13

Q: Which switch fluorescence ratio does the source give for CTGGCCAACT here?
A: 0.961

Q: With CTGGCCGGCA as the sequence, how does the switch fluorescence ratio read?
A: 0.998

Q: CTGGCCTATA was tested. Which switch fluorescence ratio did it give?
A: 1.04

Q: CTGGCCTTGT was tested. Which switch fluorescence ratio did it give?
A: 1.02

Q: With CTGGCGAAGT as the sequence, how does the switch fluorescence ratio read?
A: 0.999

Q: With CTGGGAAGCG as the sequence, how does the switch fluorescence ratio read?
A: 0.986

Q: For CTGGGCGATG, which switch fluorescence ratio is on record?
A: 0.977

Q: How did the switch fluorescence ratio turn out when CTGGGGACTT was run?
A: 0.996

Q: With CTGGGGATAA as the sequence, how does the switch fluorescence ratio read?
A: 1

Q: How did the switch fluorescence ratio turn out when CTGGGTGTGG was run?
A: 0.978

Q: Which switch fluorescence ratio does the source give for CTGGTACCCG here?
A: 1.01

Q: For CTGGTACTTG, which switch fluorescence ratio is on record?
A: 1.03

Q: CTGGTAGTTG was tested. Which switch fluorescence ratio did it give?
A: 0.992

Q: With CTGGTGCAGA as the sequence, how does the switch fluorescence ratio read?
A: 1.07

Q: CTGGTGGAAA was tested. Which switch fluorescence ratio did it give?
A: 0.964
